{"source": "patent US20240076391A1", "about": "(ONCURIOUS, published 2024)", "target": "T1, human CCR8 (human, UniProt P51685 1-355)", "T1 construct": "also called hCCR8", "test": "flow cytometry, human CCR8 on stably transfected HEK293 cells", "protocol": "The twelve multivalent VHH-Fc fusions were evaluated for their ability to bind to human CCR8 on stably transfected HEK293 cells by means of flow cytometry experiments. Cells were incubated with different concentrations of the multivalent VHH-Fc fusions for 30 minutes at 4° C., followed by two washes with FACS buffer, followed by 30 minutes incubation at 4° C. with R-Phycoerythrin AffiniPure F(ab′) 2 Fragment Goat Anti-human IgG (Jackson ImmunoResearch, cat. #109-116-098), followed by two washing steps. Dead cells were stained using TOPRO3 (Thermo Fisher Scientific, T3605)."}
{"binder": "VHH-Fc-200 (Fc fusion) EVQLVESGGGLVQPGGSLRLSCAASRSIYNVMAMGWYRQAPGKERELVAVVWSSGNTNYADSVKGRFTVSRDNAKNTVYLQMNSLRPEDTAVYYCYSKSLIGTSRYEIWGQGTLVTVSS[letters of human IgG1 Fc omitted]", "values": [{"measurement": "binding result", "result": "binds"}]}
{"binder": "VHH-Fc-201 (Fc fusion) EVQLVESGGGLVQPGGSLRLSCAASRSIYNVMAMGWYRQAPGKERELVAVVWSSGNTNYADSVKGRFTVSRDNAKNTVYLQMNSLRPEDTAVYYCYSKSLIGTSRYEIWGQGTLVTVSSGGGGSGGGGS[letters of human IgG1 Fc omitted]", "values": [{"measurement": "binding result", "result": "binds"}]}
{"binder": "VHH-Fc-202 (Fc fusion) EVQLVESGGGLVQPGGSLRLSCAASRSIYNVMAMGWYRQAPGKERELVAVVWSSGNTNYADSVKGRFTVSRDNAKNTVYLQMNSLRPEDTAVYYCYSKSLIGTSRYEIWGQGTLVTVSSGGGGSGGGGSGGGGSGGGGS[letters of human IgG1 Fc omitted]", "values": [{"measurement": "binding result", "result": "binds"}]}
{"binder": "VHH-Fc-212 (Fc fusion) EVQLVESGGGLVQPGGSLRLSCAASGRAFSSYNMGWFRQAPGKERDFVATISSSGTNYANSVKGRFTISRDNAKNTVYLQMNSLRPEDTAVYYCNAKTVTRTGGVITGSRIEYDYWGQGTLVTVSS[letters of human IgG1 Fc omitted]", "values": [{"measurement": "binding result", "result": "binds"}]}
{"binder": "VHH-Fc-213 (Fc fusion) EVQLVESGGGLVQPGGSLRLSCAASGRAFSSYNMGWFRQAPGKERDFVATISSSGTNYANSVKGRFTISRDNAKNTVYLQMNSLRPEDTAVYYCNAKTVTRTGGVITGSRIEYDYWGQGTLVTVSSGGGGSGGGGS[letters of human IgG1 Fc omitted]", "values": [{"measurement": "binding result", "result": "binds"}]}
{"binder": "VHH-Fc-214 (Fc fusion) EVQLVESGGGLVQPGGSLRLSCAASGRAFSSYNMGWFRQAPGKERDFVATISSSGTNYANSVKGRFTISRDNAKNTVYLQMNSLRPEDTAVYYCNAKTVTRTGGVITGSRIEYDYWGQGTLVTVSSGGGGSGGGGSGGGGSGGGGS[letters of human IgG1 Fc omitted]", "values": [{"measurement": "binding result", "result": "binds"}]}
{"binder": "VHH-Fc-221 (Fc fusion) EVQLVESGGGLVQPGGSLRLSCAASGSTFSIKSIGWYRQAPGKQRELVADITRGAGINYADSVKGRFTISRDNTKNTMYLQMNSLRPEDTAVYYCNVKTIKRTGGIMTGSKIEYDYWGQGTLVTVSS[letters of human IgG1 Fc omitted]", "values": [{"measurement": "binding result", "result": "binds"}]}
{"binder": "VHH-Fc-222 (Fc fusion, also called VHFc-222) EVQLVESGGGLVQPGGSLRLSCAASGSTFSIKSIGWYRQAPGKQRELVADITRGAGINYADSVKGRFTISRDNTKNTMYLQMNSLRPEDTAVYYCNVKTIKRTGGIMTGSKIEYDYWGQGTLVTVSSGGGGSGGGGS[letters of human IgG1 Fc omitted]", "values": [{"measurement": "binding result", "result": "binds"}]}
{"binder": "VHH-Fc-223 (Fc fusion) EVQLVESGGGLVQPGGSLRLSCAASGSTFSIKSIGWYRQAPGKQRELVADITRGAGINYADSVKGRFTISRDNTKNTMYLQMNSLRPEDTAVYYCNVKTIKRTGGIMTGSKIEYDYWGQGTLVTVSSGGGGSGGGGSGGGGSGGGGS[letters of human IgG1 Fc omitted]", "values": [{"measurement": "binding result", "result": "binds"}]}
